Results published in the supplement of paper PMC7826260.
The other results are listed elsewhere or left out. Viral Rep nickase domains cut single-stranded DNA in vitro (1 h at 37 °C, 3 µM enzyme); the outer parts of the 90-letter strands are left off. A value is the log2 ratio of uncut reads to the pool without enzyme; the lower, the more was cut; hits are not called. The scaling is to total reads; where an enzyme cuts many sequences, the uncut ones exceed 0.

Columns and labels:
Test in all cases: uncleaved DNA left, log2 of reads against the no-enzyme library (log2 ratio); higher = less cleavage (more negative = more Rep cleavage of the k-mer); sequences stand for … in CTCGTCCG…ACCGGAGA
[1] = system: T1, Rep nickase domain of Muscovy duck circovirus
T1 sequence (Rep 1-111, printed without the tag): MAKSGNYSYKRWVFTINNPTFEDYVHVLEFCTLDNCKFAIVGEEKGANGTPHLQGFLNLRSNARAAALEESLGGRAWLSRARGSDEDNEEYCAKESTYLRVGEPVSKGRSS
Method: (§1)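 A pool of 90-nt single-stranded DNAs with seven random bases just before the constant AC of the nick site (name = the seven bases) was cut by 3 µM recombinant His6-SUMO-tagged Rep nickase domain (300 nM DNA, 50 mM HEPES pH 8.0, 50 mM NaCl, 1 mM MnCl2, 1 h, 37 °C, three replicates). Uncut DNA was amplified and sequenced.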

[2] = system: T2, Rep nickase domain of banana bunchy top virus
T2 sequence (Rep 1-94, printed without the tag): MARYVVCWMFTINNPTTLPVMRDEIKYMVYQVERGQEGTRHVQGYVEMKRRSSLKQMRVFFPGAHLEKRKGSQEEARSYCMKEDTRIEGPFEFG
Method: as §1

[3] = system: T3, Rep nickase domain of cabbage leaf curl virus
T3 sequence (Rep 1-116, printed without the tag): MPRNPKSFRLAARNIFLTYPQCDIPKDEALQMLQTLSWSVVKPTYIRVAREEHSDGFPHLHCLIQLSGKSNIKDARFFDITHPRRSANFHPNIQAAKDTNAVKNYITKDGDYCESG
Method: as §1

[4] = system: T4, Rep nickase domain of chickpea chlorotic dwarf virus
T4 sequence (Rep 1-124, printed without the tag): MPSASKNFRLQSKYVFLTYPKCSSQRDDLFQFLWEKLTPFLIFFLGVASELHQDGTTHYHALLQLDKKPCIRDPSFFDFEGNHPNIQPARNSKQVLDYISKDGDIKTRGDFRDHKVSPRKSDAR
Method: as §1

[5] = system: T5, Rep nickase domain of faba bean necrotic yellows virus
T5 sequence (Rep 1-98, printed without the tag): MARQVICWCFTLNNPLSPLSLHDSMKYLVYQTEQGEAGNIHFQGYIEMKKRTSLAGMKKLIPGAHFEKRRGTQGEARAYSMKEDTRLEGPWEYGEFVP
Method: as §1

[6] = system: T6, Rep nickase domain of maize striate mosaic virus
T6 sequence (Rep 1-117, printed without the tag): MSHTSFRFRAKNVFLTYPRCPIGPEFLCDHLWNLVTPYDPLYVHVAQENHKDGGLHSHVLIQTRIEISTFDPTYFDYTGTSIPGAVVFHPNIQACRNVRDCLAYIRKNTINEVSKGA
Method: as §1

[7] = system: T7, Rep nickase domain of porcine circovirus 2
T7 sequence (Rep 2-116, printed without the tag): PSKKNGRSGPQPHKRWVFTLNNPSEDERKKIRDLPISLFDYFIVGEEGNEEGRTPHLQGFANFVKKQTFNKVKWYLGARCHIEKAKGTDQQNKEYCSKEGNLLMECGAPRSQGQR
Method: as §1

[8] = system: T8, Rep nickase domain of tomato golden mosaic virus
T8 sequence (Rep 1-124, printed without the tag): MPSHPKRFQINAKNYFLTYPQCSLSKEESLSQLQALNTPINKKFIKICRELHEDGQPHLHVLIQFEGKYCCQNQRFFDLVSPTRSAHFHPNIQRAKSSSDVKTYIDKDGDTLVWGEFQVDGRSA
Method: as §1

[9] = system: T9, Rep nickase domain of tomato yellow leaf curl virus
T9 sequence (Rep 1-136, printed without the tag): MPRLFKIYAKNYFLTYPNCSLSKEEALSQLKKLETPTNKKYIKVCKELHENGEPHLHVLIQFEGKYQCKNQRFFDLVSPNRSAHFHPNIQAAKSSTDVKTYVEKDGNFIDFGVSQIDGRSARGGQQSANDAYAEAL
Method: as §1

[10] = system: T10, Rep nickase domain of wheat dwarf virus
T10 sequence (Rep 1-137, printed without the tag): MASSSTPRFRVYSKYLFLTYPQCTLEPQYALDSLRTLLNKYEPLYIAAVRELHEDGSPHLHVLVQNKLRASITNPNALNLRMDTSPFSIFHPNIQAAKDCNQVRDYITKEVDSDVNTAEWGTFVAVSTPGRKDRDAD
Method: as §1

Sequence	uncleaved DNA left (log2) [1]	uncleaved DNA left (log2) [2]	uncleaved DNA left (log2) [3]	uncleaved DNA left (log2) [4]	uncleaved DNA left (log2) [5]	uncleaved DNA left (log2) [6]	uncleaved DNA left (log2) [7]	uncleaved DNA left (log2) [8]	uncleaved DNA left (log2) [9]	uncleaved DNA left (log2) [10]
TCCGGCT	0.0696	0.00604	0.035	-0.185	-0.0567	-0.138	0.0468	-0.0443	0.0299	-0.12
GTGCGCT	-0.0652	-0.0779	-0.342	-0.26	0.0996	-0.28	0.0561	-0.064	-0.0761	-0.134
GAGGATT	0.164	0.269	0.712	1.47	0.145	2.06	-0.712	0.186	0.189	0.289
CTTGATG	0.046	0.168	-0.49	-0.47	0.0278	-1.03	0.068	-0.0785	0.033	-0.03
CCACATG	0.06	-0.0715	-0.461	-0.545	0.0227	-1.01	0.165	0.00751	0.107	-0.14
GGAAAAC	0.0377	0.157	0.661	1.68	0.0253	1.99	0.157	0.0858	0.0659	0.245
GACAATG	0.0796	0.0899	-0.0433	0.294	-0.0165	-0.377	0.0648	0.159	0.0699	0.112
GATTAAA	-0.254	-0.0154	0.228	0.613	-0.0504	0.931	-0.0992	0.195	0.0636	0.046
CGCACGA	-0.0479	-0.00296	-0.109	-0.0602	0.01	-0.416	-0.0988	-0.0562	0.0572	-0.116
GAGCTGT	-0.116	-0.122	0.115	1.24	-0.207	1.43	-0.384	0.00983	-0.173	-0.132
TCGCCTA	0.0379	0.0751	0.0224	-0.503	-0.0539	-0.488	-0.22	0.00916	0.0628	-0.12
GGTGGTG	0.152	-0.0395	-0.227	0.0476	0.0577	-0.0326	0.169	0.0346	0.0538	0.0926
CTCGACA	-0.0646	-0.168	-0.0316	-1.04	-0.157	-0.103	-0.175	-0.12	-0.0273	-0.0592
GAGGAAC	-0.0924	-0.106	0.441	1.43	-0.118	1.78	0.0503	-0.137	-0.00326	0.0947
ATGTTGT	0.0478	-0.0504	-0.179	-0.476	0.149	-0.755	-2.33	0.0566	-0.055	-0.0196
TGTGAAG	0.0987	0.133	-0.745	-0.455	0.127	-1	0.133	0.0355	0.0138	-0.0603
GGACGAC	0.0162	0.0206	0.663	1.75	-0.184	2.07	0.137	-0.114	-0.0468	0.0779
CCCACTG	-0.00718	0.00717	-0.18	0.207	-0.108	0.99	0.00989	-0.107	-0.182	0.0224
TGAGACA	0.124	0.158	0.574	1.06	0.0845	1.7	0.22	0.0929	0.0851	0.108
CCCTAGC	0.112	0.119	-0.0991	-0.304	0.0156	-1.06	0.0622	0.0889	0.0887	0.00249
TGTAAAG	0.0502	0.0271	-0.581	-0.496	-0.0101	-1.11	0.209	0.0476	0.038	-0.0219

Sequence	uncleaved DNA left (log2) [1]	uncleaved DNA left (log2) [2]	uncleaved DNA left (log2) [3]	uncleaved DNA left (log2) [4]	uncleaved DNA left (log2) [5]	uncleaved DNA left (log2) [6]	uncleaved DNA left (log2) [7]	uncleaved DNA left (log2) [8]	uncleaved DNA left (log2) [9]	uncleaved DNA left (log2) [10]
TGAGTGA	0.0371	-0.075	-0.156	0.314	-0.0196	0.00763	-0.077	0.0637	-0.00476	-0.0279
GAGCGGC	0.0145	-0.0147	0.0357	0.483	0.0185	0.912	-0.00149	0.0515	-0.112	-0.0088
CGTTATC	-0.0574	0.0599	0.18	0.33	0.104	-0.219	0.145	-0.0379	0.0131	0.126
GACAGTC	-0.057	0.0609	0.52	1.15	-0.0361	1.32	0.146	-0.0371	0.0142	0.031
CTTACAA	0.00241	0.106	-0.148	-2.11	0.0487	-0.47	0.115	0.0357	0.0765	0.191
GCGTGGA	0.0934	0.0664	0.157	0.533	0.0895	0.462	0.13	0.037	0.0338	0.135
CAGCGCG	-0.113	-0.096	-0.894	-0.228	-0.133	-1.02	-0.00324	-0.105	-0.0742	-0.187
TTCAGGG	-0.0687	0.000554	0.288	0.609	0.148	0.425	0.206	0.127	0.0255	-0.0404
GATGAGG	0.129	0.0644	0.418	1.08	0.0658	1.02	0.111	0.13	-0.0664	0.144
GGGGATC	-0.0153	-0.0262	0.696	1.83	-0.105	2.2	0.0911	-0.0608	-0.186	0.0844
GGGCTGT	0.09	0.105	0.828	1.82	-0.0256	2.2	0.211	0.0782	0.0685	0.221
TCGTCGA	0.141	-0.0479	-0.375	-0.698	-0.0442	-0.902	0.0914	-0.0423	-0.0211	-0.128
CCCCGCT	-0.061	-0.0814	-0.309	-1.11	-0.135	-0.918	-0.101	-0.125	-0.112	-0.209
ATATCAA	0.034	0.169	0.269	0.454	0.156	-0.11	0.0523	0.0103	0.094	0.263
TTAAGGA	0.0541	0.0321	0.0775	0.18	0.0549	-0.148	0.14	0.0945	0.0148	0.0665
CACAAAT	0.0479	0.109	-0.142	-2.04	-0.0178	-0.589	-1.21	0.0322	-0.112	0.192
TTCATAC	-0.0325	-0.1	0.103	-0.791	0.0417	-0.462	-0.00315	0.00425	0.038	-0.0484
GGCGAAG	-0.0104	0.177	0.21	0.664	-0.00348	1.26	0.146	0.119	-0.0315	0.0985
GGCCATC	0.117	0.139	0.739	1.69	0.0404	2.12	0.187	-0.0114	0.122	0.115
TGCGCCA	-0.0464	0.00419	-0.154	-0.374	0.0555	-0.234	-0.0751	-0.0447	-0.0394	-0.0572
TTACCCG	-0.194	-0.0889	-1.2	-1.99	0.00315	-1.05	-2.07	-0.0168	-0.0161	-0.101

Sequence	uncleaved DNA left (log2) [1]	uncleaved DNA left (log2) [2]	uncleaved DNA left (log2) [3]	uncleaved DNA left (log2) [4]	uncleaved DNA left (log2) [5]	uncleaved DNA left (log2) [6]	uncleaved DNA left (log2) [7]	uncleaved DNA left (log2) [8]	uncleaved DNA left (log2) [9]	uncleaved DNA left (log2) [10]
GAACTGG	-0.122	-0.0508	0.35	0.963	-0.16	1.15	0.124	0.0815	-0.0438	0.0207
CTTCAAT	0.102	0.0737	-0.0699	-0.647	0.0432	-0.597	-0.213	-0.0548	-0.0141	-0.0541
ATGCGTG	0.0387	0.0801	-0.486	-0.304	-0.125	-0.923	0.0572	0.019	-0.00695	0.00267
TCCGACG	0.0924	-0.025	-0.373	-0.405	0.0419	-0.76	0.0143	-0.000691	-0.0568	0.041
CTTCCGG	0.0114	0.0698	0.447	1.37	-0.0692	1.58	0.1	0.0816	0.00272	-0.0207
CGGCTGG	-0.00288	0.124	0.0975	0.645	0.00783	1.32	0.182	0.147	-0.0533	0.1
GTGAAGA	0.0399	0.149	0.36	0.963	0.0115	1.02	0.195	0.117	0.187	0.0408
AACTCTA	-0.303	-0.223	-0.395	-2.8	-0.0602	-0.731	-2.51	-0.216	-0.0594	-0.229
TTCTTGT	-0.498	-0.276	-0.24	-0.843	-0.171	-1.1	-1.02	-0.322	-0.168	-0.21
TGTGTAT	0.00188	0.106	0.363	0.65	0.0479	1.39	-0.0313	0.116	0.102	0.108
TAAGCGC	0.094	-0.00675	-0.792	-0.624	0.0222	-1.08	0.11	-0.113	0.123	-0.22
GAGCAGT	-0.0208	0.0168	0.197	0.852	0.0545	0.887	-0.969	-0.0343	0.0776	0.0537
GGCTCCT	-0.0344	-0.0416	0.159	0.203	-0.0165	0.827	-0.483	-0.115	0.049	0.0455
AGGCGTC	-0.0986	-0.148	-0.29	-0.324	-0.106	-0.678	0.0173	-0.13	-0.0246	-0.175
GCGCATC	-0.0592	-0.0586	0.157	0.59	-0.182	0.259	0.0502	-0.161	-0.0928	-0.096
TAGAGTC	-0.0226	-0.0774	0.0158	-0.291	-0.0162	-0.63	-0.295	-0.111	-0.0295	-0.163
CGCGGGC	0.0464	-0.0164	0.0336	0.104	0.0539	-0.168	-0.0736	-0.0803	-0.152	-0.0326
GTTTCAA	0.0707	0.072	0.314	0.845	-0.137	1.77	-0.0111	0.185	0.0733	0.078
AACTTTT	-4.26	-3.63	-1.55	-2.93	-0.39	-0.889	-4.51	-0.415	-0.115	-0.3
GCTAGAA	-0.00728	-0.0453	0.164	0.514	0.00186	0.0588	0.0142	-0.0246	0.014	-0.0359
